# Test results taken from the supplement of paper PMC3334620.
# In all, about 33,000 sequences were measured (“E-score (-0.5 to 0.5)”: median about -0.017, highest 2% from about 0.3 on). The list shows a part of the results.
# Biological target: T1, Sut1 (UniProt P53032)
# T1 sequence: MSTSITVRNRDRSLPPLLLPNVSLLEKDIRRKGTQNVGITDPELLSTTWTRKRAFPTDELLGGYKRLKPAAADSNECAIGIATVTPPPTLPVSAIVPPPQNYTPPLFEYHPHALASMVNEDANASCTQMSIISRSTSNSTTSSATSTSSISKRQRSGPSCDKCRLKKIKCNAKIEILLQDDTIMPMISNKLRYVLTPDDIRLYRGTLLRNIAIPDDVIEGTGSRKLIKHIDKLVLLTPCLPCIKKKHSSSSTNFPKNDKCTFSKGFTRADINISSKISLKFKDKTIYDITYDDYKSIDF
# Test: PBM E-score (8-mer binding enrichment) (E-score (-0.5 to 0.5)); higher = stronger / more preferred TF binding; most listed sequences are background and not binding sites
# Conditions: protein concentration: 200 nM; construct: GST-full length
# Method in brief: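 GST-tagged yeast TFs (full-length or DNA-binding domain) were made by PURExpress in vitro transcription/translation and applied at about 100-200 nM to universal all-10-mer Agilent arrays. The arrays were made double-stranded by primer extension, on fresh or once-stripped slides. Bound protein was detected with fluorescent anti-GST, and scans were normalised with masliner. Each ungapped eight-base word, pooled with its reverse complement, received an E-score (modified Wilcoxon-Mann-Whitney statistic) from the Universal PBM Analysis Suite.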
row,Sequence,PBM E-score
1,ATCACAAT,0.0675
2,CACGGAAA,0.188
3,GAGTCCGC,0.282
4,TAGATGGA,-0.134
5,CCACAGCC,-0.273
6,CCCAGTCC,-0.0863
7,CCCACTGA,-0.239
8,ACGGACAT,0.404
9,AGCAGACA,-0.348
10,CACAAAGG,-0.0165
11,GGGTGTAA,0.0141
12,AATTCAAA,0.283
13,ACCAAGGG,-0.128
14,ATAGTCAA,0.09
15,AGGGTGCC,-0.347
16,GGTCGCGA,-0.12
17,CTCCAGAG,-0.228
18,GTGACATA,0.0538
19,AGGACTGG,-0.221
20,CCTCCTAG,-0.325
21,ACCTAATA,0.162
22,ATCCTAAA,0.0773
23,GGACATGA,0.192
24,GCAAGTCA,-0.0534
25,ACTGACAA,0.0597

row,Sequence,PBM E-score
1,ACAACTAA,0.286
2,CCAGAAGG,-0.238
3,GTGCTTAA,0.117
4,ATCGTCAC,-0.136
5,TAGGATAA,0.189
6,CGCTAACC,-0.214
7,GACCTCCC,-0.211
8,ACATTTTC,0.135
9,TCGGGGCA,-0.0853
10,TCATCGGA,0.395
11,ACACGATG,-0.153
12,AGGAAGAC,-0.15
13,GCATTAAC,-0.0101
14,ACGCCTCA,-0.212
15,ATCGGCGC,-0.0591
16,GGTATAAC,0.0479
17,AAATAAGG,0.0902
18,AGCTCCAC,-0.0851
19,CACCAGAG,-0.364
20,TAGCGACA,0.0395
21,GCGCCCGA,-0.17
22,GTTACTTA,0.194
23,AGTTTTAG,0.132
24,AAGACGCA,0.063
25,CGTCTTGA,0.0919

row,Sequence,PBM E-score
1,ACGATGGC,-0.022
2,AACAGAAA,0.156
3,GTACACAA,-0.0364
4,GTACAACA,0.226
5,CATGCCGG,0.139
6,ATACATGC,0.0744
7,CGCGTTCA,0.0695
8,CTATGACA,-0.0401
9,GCAGGAAC,-0.135
10,ATGGTTTA,0.139
11,CCATTATA,0.135
12,CTCGTTGC,-0.0613
13,TACTGGGA,0.0127
14,ACCCGAGG,-0.246
15,AGCGAGGG,-0.263
16,CGAAAGAA,0.229
17,AGTGCGAC,-0.175
18,TGTGTTAA,0.193
19,CTCTTGTC,-0.00402
20,AGATTTAG,0.087
21,TACATTAA,0.266
22,GTGTAATA,0.202
23,ATGGCCAA,-0.0795
24,GCGGGCCA,-0.155
25,CAAGGGCA,-0.285

row,Sequence,PBM E-score
1,ACGCCATC,-0.164
2,ATGAGACC,-0.00164
3,ATCAAAGG,-0.0488
4,CCACCGAA,0.0255
5,ATTCATGA,-0.0184
6,ACATGGTA,0.037
7,AATTATCC,0.1
8,CTAAGAAG,0.119
9,GAGCGACC,0.0209
10,CAAACCCA,0.0595
11,CGGACAAG,0.22
12,CACTCCCG,-0.0356
13,AACACGCC,-0.068
14,GGATAAGA,-0.0157
15,AGTAAATC,0.117
16,AAGATTGA,0.0669
17,GAAATGTC,-0.0171
18,CGTATCCA,-0.0901
19,GAATAGTA,0.215
20,ACTGAGAA,-0.149
21,GCAACCCC,0.0182
22,ACGGACTC,0.393
23,CGGGATTA,0.202
24,ATAAATGG,0.067
25,ATGACGAG,-0.12

row,Sequence,PBM E-score
1,ACATTTAT,0.135
2,GCTCTTTA,0.121
3,ACCCACGT,-0.0719
4,CTCTCTGC,-0.104
5,AAACGGTA,0.0446
6,AGCATTAG,-0.0752
7,ATCGTTGA,-0.0646
8,CACCTTAG,-0.129
9,ATCGTCAA,0.111
10,AGCACGCT,-0.279
11,ACTCTACA,-0.146
12,CACTCCGA,0.471
13,TCCATGCA,-0.025
14,CTTACGTC,-0.17
15,TCATTAAA,0.315
16,AAAGGTCG,-0.0989
17,GTTATGGA,0.135
18,CTTAGTAA,0.101
19,TCTTAAAA,0.111
20,ACGAAGGA,0.0241
21,ACTGTAGG,0.0472
22,AGCTGTAT,-0.0697
23,GGACGCGA,-0.0957
24,CCGCTAGC,-0.104
25,TAGCAACA,0.124

row,Sequence,PBM E-score
1,ACCTTACC,0.0475
2,GAATAGCC,-0.0454
3,GAAGGACC,-0.0389
4,ACGGCGTG,-0.0512
5,AGTGGTTG,0.0807
6,CGAGTTTC,0.0659
7,AATAGGCA,0.0103
8,GAGGCTAC,-0.349
9,ATGAACAA,0.134
10,AACAGCGA,-0.19
11,CGAATGTC,0.0601
12,AGTGCTTG,-0.0475
13,AACATACG,0.00839
14,CTCTCCTA,-0.0385
15,ATTTGCCG,0.126
16,ACCAATAG,-0.115
17,CCTCTGCC,-0.231
18,AATGCCCG,-0.158
19,AAGCACCA,-0.0701
20,AAGCTCGT,-0.0854
21,ATTCTTTC,0.262
22,GAGCGAGA,0.202
23,GACAAGCA,-0.109
24,CACTGGAA,0.0452
25,ACTGGAAA,-0.0243

row,Sequence,PBM E-score
1,GGCCTGAC,-0.213
2,ACATTAGG,0.0153
3,CGAGGGTC,-0.194
4,GAGGCGAA,-0.0721
5,CTTGACAA,0.058
6,ATGTGGGA,-0.0455
7,GAACATTC,0.0907
8,GCTGTACA,-0.155
9,AATTTGCG,0.126
10,TCACCTGA,-0.165
11,ATCGATCA,0.0202
12,ACAGAAGT,-0.00216
13,CCATGGAC,-0.229
14,CCGTAAAC,0.0734
15,GCCAGCCC,-0.278
16,AGGCGACC,-0.207
17,GATCATCA,-0.153
18,CGCCGATA,-0.197
19,ACGCCTCT,-0.164
20,ACGAAGGC,-0.338
21,ATCGCGCG,0.0868
22,ACCGAAGC,-0.0421
